From article PMC4336329 (PLoS ONE, 2015)
Screen size: about 310,000 compounds; about 14,000 (4.5%) showed an effect of 50% or more. Effects have a minus sign here. The list shows a part of the results.

The compounds below were run against human ether-à-go-go-related gene (hERG) potassium channel (human, UniProt Q12809) (assay: primary screen, population patch clamp on CHO cells stably expressing hERG).
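Note: peak tail current of the secondary pulse compared with the same well before compound.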

human ether-à-go-go-related gene (hERG) potassium channel, sequence (Q12809 whole entry, looked up): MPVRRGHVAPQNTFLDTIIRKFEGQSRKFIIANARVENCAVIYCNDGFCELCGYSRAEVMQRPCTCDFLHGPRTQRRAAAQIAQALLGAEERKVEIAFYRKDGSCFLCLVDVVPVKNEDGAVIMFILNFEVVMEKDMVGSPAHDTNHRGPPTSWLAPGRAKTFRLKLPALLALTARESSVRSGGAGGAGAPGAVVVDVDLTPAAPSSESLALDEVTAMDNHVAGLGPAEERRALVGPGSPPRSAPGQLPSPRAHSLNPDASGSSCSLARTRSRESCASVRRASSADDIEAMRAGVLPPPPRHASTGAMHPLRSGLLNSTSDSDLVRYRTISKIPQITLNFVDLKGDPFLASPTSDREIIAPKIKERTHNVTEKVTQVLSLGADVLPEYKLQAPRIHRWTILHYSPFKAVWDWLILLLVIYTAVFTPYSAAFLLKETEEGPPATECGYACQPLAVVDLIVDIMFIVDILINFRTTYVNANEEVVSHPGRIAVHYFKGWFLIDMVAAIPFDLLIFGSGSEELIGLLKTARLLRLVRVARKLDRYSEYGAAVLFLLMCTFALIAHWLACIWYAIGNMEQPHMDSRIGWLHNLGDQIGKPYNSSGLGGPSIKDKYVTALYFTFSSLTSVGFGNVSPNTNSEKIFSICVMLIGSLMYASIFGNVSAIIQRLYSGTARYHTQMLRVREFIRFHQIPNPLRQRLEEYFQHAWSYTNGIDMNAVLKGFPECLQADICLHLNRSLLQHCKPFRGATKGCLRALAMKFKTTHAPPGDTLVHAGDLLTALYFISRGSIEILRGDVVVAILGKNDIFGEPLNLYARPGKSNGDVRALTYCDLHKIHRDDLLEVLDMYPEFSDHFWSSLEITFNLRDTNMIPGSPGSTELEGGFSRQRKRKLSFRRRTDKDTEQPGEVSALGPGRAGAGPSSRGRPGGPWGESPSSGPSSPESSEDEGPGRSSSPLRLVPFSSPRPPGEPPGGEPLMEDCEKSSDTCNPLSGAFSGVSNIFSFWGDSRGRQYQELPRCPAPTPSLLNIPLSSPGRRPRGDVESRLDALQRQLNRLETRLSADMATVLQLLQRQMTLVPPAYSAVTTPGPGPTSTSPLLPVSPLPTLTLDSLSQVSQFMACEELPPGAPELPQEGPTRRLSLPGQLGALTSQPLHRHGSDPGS

Going from `CCOc1ccc(NC(=O)CCSc2ccc3ccccc3n2)cc1` to `CCOc1ccc(NS(=O)(=O)c2ccc(NC(=O)c3ccccn3)cc2)cc1`, the “hERG current change (%, negative = inhibition) at 10uM” value rises from -5.77% to 9.85%.

First: CCOc1cc(C(=S)N2CCOCC2)ccc1OS(=O)(=O)c1ccc(NC(C)=O)cc1
Second: Cc1ccc(S(=O)(=O)N2CCN(CCNC(=O)C(=O)Nc3ccc(F)cc3)CC2)cc1
The “hERG current change (%, negative = inhibition) at 10uM” value of the first is lower: -2.37% for the first, 2.09% for the second.

Going from `O=C1CC(N2CCN(S(=O)(=O)c3ccccc3F)CC2)C(=O)N1c1ccccc1Cl` (stereo not shown) to `O=C(NCCN1CCN(c2ccccc2F)CC1)C1c2ccccc2C(=O)N2CCc3ccccc3C12` (stereo not shown), the “hERG current change (%, negative = inhibition) at 10uM” value falls from -3.61% to -11.8%.

First: CCc1ccc(Nc2nc(C)cc(C)n2)cc1.Cl
Second: Cc1cc(C)nc(NS(=O)(=O)c2ccc(NS(=O)(=O)c3ccc(C#N)cc3)cc2)n1
The “hERG current change (%, negative = inhibition) at 10uM” value of the first is higher: -1.21% for the first, -4.23% for the second.

Compared with `CC1Cc2ccccc2N1C(=O)C(C)n1cc(C(F)(F)F)cc(Cl)c1=O` (stereo not shown), `CC(=O)N1c2ccc(S(=O)(=O)N3CCC(C(=O)NCc4ccc(F)cc4)CC3)cc2CC1C` (stereo not shown) is lower in “hERG current change (%, negative = inhibition) at 10uM” value: 5.52% for the first, 4.87% for the second.

Compared with `COc1ccc(OC)c(-c2c3cc(O)c(=O)cc-3oc3cc(O)c(O)cc23)c1`, `COc1cc(C(=O)c2ccccc2Cl)c([N+](=O)[O-])cc1OC` is lower in “hERG current change (%, negative = inhibition) at 10uM” value: 5.48% for the first, -21% for the second.

Going from `C=CCOC(=O)C1=C[C@H](c2ccc(C(F)(F)F)cc2)[C@@H](CCCO)[C@H](OCC)O1` to `CCOC(=O)c1sc2ccccc2c1OC(=O)c1ccccc1OC`, the “hERG current change (%, negative = inhibition) at 10uM” value rises from -16.3% to 14.8%.

Compared with `O=C(Cc1csc(NC(=O)Nc2ccc(Cl)cc2)n1)NCc1ccccn1`, `O=C(CSc1nnc(CNC(=O)c2ccccc2)o1)c1ccc(Cl)cc1` is higher in “hERG current change (%, negative = inhibition) at 10uM” value: -44.7% for the first, -30.3% for the second.

First: CCn1cc(C(=O)O)c(=O)c2cc(F)c(N3CCN(C(=S)NC(=O)c4ccccc4F)CC3)cc21
Second: COc1ccc(C(=O)CCN2CCN(c3ccccc3F)CC2)cc1.Cl
The “hERG current change (%, negative = inhibition) at 10uM” value of the first is higher: 2.73% for the first, -71.5% for the second.

First: Cc1[nH]n(-c2ccccc2)c(=O)c1N=Nc1c(O)cc(S(=O)(=O)N(C)C)c2ccccc12
Second: CCN(CC)C(=O)CSc1nc2ccccc2c(=O)n1-c1cccc(OC)c1
The “hERG current change (%, negative = inhibition) at 10uM” value of the first is higher: 22.8% for the first, -14.7% for the second.

Going from `COc1ccccc1C(=O)N/C(=C/c1ccc(Br)cc1)C(=O)NCCO` to `COc1ccc(CC(=O)NNC(=S)Nc2ccc(Br)cc2)cc1`, the “hERG current change (%, negative = inhibition) at 10uM” value rises from -24% to 13.8%.

Compared with `CN(C)CCCNc1c2c(nc3cc(-c4cccc(F)c4)nn13)CCC2`, `COc1cc2c(cc1OC)CN(S(=O)(=O)c1cccc(F)c1)CC2` is higher in “hERG current change (%, negative = inhibition) at 10uM” value: -69.1% for the first, 18.6% for the second.

Going from `Cc1ccc2ccc3cccc4ccc1c2c34` to `Cc1ccc(Nc2nc(N)c([N+](=O)[O-])c(NCc3ccccc3)n2)cc1`, the “hERG current change (%, negative = inhibition) at 10uM” value falls from 14% to 12.1%.

Compared with `Cc1ccc(-c2nn(Cc3ccccc3)cc2C=O)cc1`, `Cc1ccc(-c2cn(S(=O)(=O)c3cccc([N+](=O)[O-])c3)nc2N)cc1` is higher in “hERG current change (%, negative = inhibition) at 10uM” value: -6.3% for the first, 15.3% for the second.

First: Cc1cccc(C(=O)NCc2nnc(SCC(=O)NC(C)c3ccccc3)n2C)c1 (stereo not shown)
Second: CC(NC(=O)CSc1nc2ccccc2c(=O)n1CCCO)c1ccccc1 (stereo not shown)
The “hERG current change (%, negative = inhibition) at 10uM” value of the first is higher: 3.31% for the first, -13.7% for the second.

First: COc1ccc(Br)cc1CNC(=O)C1CCN(c2nnc(N3CCCC3=O)s2)CC1
Second: COc1ccc(-n2nnc3c(=O)n(CC(=O)N4CCCCC4)cnc32)cc1
The “hERG current change (%, negative = inhibition) at 10uM” value of the first is higher: 13.9% for the first, 1.8% for the second.

First: CCCCn1c(-c2ccccc2)nnc1-c1ccccc1
Second: COCCN(C(=O)Nc1ccccc1)c1ccccc1
The “hERG current change (%, negative = inhibition) at 10uM” value of the first is lower: -10.9% for the first, 2.3% for the second.

First: Cc1ccc(CNC(=S)Nc2ccc(C)c([N+](=O)[O-])c2)cc1
Second: Cc1ccc(NC(=O)C2C3CCCC2C3c2ccccc2)cc1C (stereo not shown)
The “hERG current change (%, negative = inhibition) at 10uM” value of the first is higher: 17.5% for the first, 2.25% for the second.

Compared with `COC(=O)CCSCC(=O)N1N=C(c2ccc(Br)cc2)CC1c1cccc(OC)c1OC` (stereo not shown), `COc1ccccc1NC(=O)c1nn(C)c(C(=O)Nc2ccccc2OC)c1[N+](=O)[O-]` is higher in “hERG current change (%, negative = inhibition) at 10uM” value: 9.64% for the first, 17.6% for the second.

Compared with `O=C(CN1CCCN(Cc2ccc(F)cc2)S1(=O)=O)NC1CCCC1`, `O=C(CSc1n[nH]c(=O)[nH]c1=O)NC1CCCCC1` is higher in “hERG current change (%, negative = inhibition) at 10uM” value: 5% for the first, 12.1% for the second.

Compared with `COC(=O)c1sc2nc(CSc3ccc(Br)cc3)[nH]c(=O)c2c1C`, `COC(=O)N/N=C(\C)c1ccc(Br)cc1` is higher in “hERG current change (%, negative = inhibition) at 10uM” value: 10% for the first, 11.6% for the second.

Compared with `Cn1c(SCc2nnc(-c3ccc(F)cc3)o2)nnc1C1COc2ccccc2O1` (stereo not shown), `FC(F)(F)c1nc2ccccc2n2c(-c3ccc(Cl)cc3)nnc12` is higher in “hERG current change (%, negative = inhibition) at 10uM” value: -60.9% for the first, 5.64% for the second.

First: CC1=Nc2ccccc2/C1=C\c1sc(Nc2ccc(C)cc2)nc1O
Second: CSc1nnc(N2C(=O)C(O)=C(C(=O)c3ccc(C)o3)C2c2ccc(C)cc2)s1 (stereo not shown)
The “hERG current change (%, negative = inhibition) at 10uM” value of the first is lower: -1.36% for the first, 4.28% for the second.

First: Cc1cccc(OCC(=O)N(C)CCc2ccccn2)c1
Second: COc1cccc(OCCn2cc(/C=N/NC(=O)c3ccncc3)c3ccccc32)c1
The “hERG current change (%, negative = inhibition) at 10uM” value of the first is higher: -7.66% for the first, -8.35% for the second.

Compared with `O=C(C(c1ccccc1)c1ccccc1)N1CCN(Cc2ccncc2)CC1`, `Cc1c(NC(=O)c2ccccc2NC(=O)c2ccccc2)cccc1C(=O)O` is higher in “hERG current change (%, negative = inhibition) at 10uM” value: -35.4% for the first, 21.4% for the second.

Going from `CCCOn1c(OCC(C)C)nc2ccccc2c1=O` to `CCCCn1c(N)c(N(CCOC)C(=O)c2cc(-c3ccc(F)cc3)nc3ccccc23)c(=O)[nH]c1=O`, the “hERG current change (%, negative = inhibition) at 10uM” value rises from -1.01% to 5.56%.

Going from `Cc1nc(-c2cccc(NC(=O)c3cc4cc(Br)ccc4oc3=O)c2)cs1` to `CCn1c(O)c(C2=c3ccccc3=NC2=O)c2cc(Br)ccc21`, the “hERG current change (%, negative = inhibition) at 10uM” value rises from -0.364% to 4.24%.

First: CCCN1C(=O)c2cc(C(=O)NC3CCCC3)ccc2C1O (stereo not shown)
Second: CC(=O)c1[nH]c(C)c(C(=O)N2CCCC(Nc3cccc(F)c3)C2)c1C (stereo not shown)
The “hERG current change (%, negative = inhibition) at 10uM” value of the first is lower: -2.01% for the first, 21.2% for the second.

Going from `NS(=O)(=O)c1ccc(CCNC(=O)CCc2nc3ccccc3s2)cc1` to `CCc1nn(CC(=O)NCCc2ccc(S(N)(=O)=O)cc2)c(=O)c2cc3sccc3n12`, the “hERG current change (%, negative = inhibition) at 10uM” value rises from -6.61% to 20.1%.

Going from `O=C1C2C3C=CC(C3)C2C(=O)N1c1ncn[nH]1` (stereo not shown) to `O=C(CSc1nnc(C2CC2)n1C1CC1)c1ccccc1F`, the “hERG current change (%, negative = inhibition) at 10uM” value falls from 14.7% to -7.69%.

First: O=C(c1cccc(S(=O)(=O)N2CCOCC2)c1)N(Cc1nnc(-c2ccccc2Cl)o1)C1CC1
Second: Cc1ccc(S(=O)(=O)N2CCN(C(=O)CSc3nnc(-c4ccco4)o3)CC2)cc1
The “hERG current change (%, negative = inhibition) at 10uM” value of the first is lower: -24.9% for the first, -24.3% for the second.

Compared with `CC(C)c1nc2cc(C(=O)N3CCNC(=O)C3c3cccc(F)c3)ccc2o1` (stereo not shown), `O=C1CN(C(=O)c2ccco2)C(c2ccccc2)c2cc(Cl)ccc2N1` (stereo not shown) is lower in “hERG current change (%, negative = inhibition) at 10uM” value: 3.09% for the first, -27.8% for the second.

Compared with `Cc1nnc(NC(=O)CSc2ncc(-c3ccccc3)[nH]2)s1`, `Cc1cc(NC(=O)CCl)n(-c2nc3ccccc3s2)n1` is higher in “hERG current change (%, negative = inhibition) at 10uM” value: 2.94% for the first, 9.06% for the second.

First: CCc1cc(C(=O)N2CCCC(CO)(Cc3ccc(F)cc3)C2)n(C)n1 (stereo not shown)
Second: CC(C)(C)OC(=O)NCc1ccc(CNC(=O)c2nc[nH]c2C(=O)N2CCN(c3ccccc3)CC2)cc1
The “hERG current change (%, negative = inhibition) at 10uM” value of the first is higher: -9.49% for the first, -18.9% for the second.

First: CCOC(=O)c1cc(NC(=O)Nc2nc3ccccc3s2)c(C)nc1C
Second: Cc1ccc2nc(NC(=O)COC(=O)c3ccncc3)sc2c1
The “hERG current change (%, negative = inhibition) at 10uM” value of the first is higher: 13% for the first, -20.6% for the second.

Going from `COc1ccc(C2C(C(=O)NCCCN3CCOCC3)c3ccccc3C(=O)N2c2ccc(OC)cc2)cc1` (stereo not shown) to `CCN(CCCNC(=O)C1CCN(S(=O)(=O)c2cnc[nH]2)CC1)c1ccccc1`, the “hERG current change (%, negative = inhibition) at 10uM” value rises from -0.81% to 26.1%.

Going from `COc1ccc(CNCCCSc2ncccn2)c(OC)c1.Cl` to `CS(=O)(=O)NNC(=O)Cn1nnc(-c2ccc(OCc3ccccc3Cl)cc2)n1`, the “hERG current change (%, negative = inhibition) at 10uM” value rises from -11.6% to 18%.

Going from `CC(=O)C1=C(O)CCC1=N` to `CC(=O)Nc1ccc(NC(=O)CC23CC4CC(CC(C4)C2)C3)cc1`, the “hERG current change (%, negative = inhibition) at 10uM” value rises from 0.578% to 11.4%.

Compared with `CCOC(=O)C(=CNc1ncccc1C)C(=O)OCC`, `CCOc1ccc(-n2cnnn2)cc1S(=O)(=O)Nc1c(C)cccc1C` is lower in “hERG current change (%, negative = inhibition) at 10uM” value: 1.51% for the first, -19.4% for the second.

Going from `Cc1ccc(-n2c(O)c(/C=N/NC(=O)c3ccncc3)c(=O)[nH]c2=O)cc1C` to `Cc1n[nH]c(C)c1CCC(=O)N/N=C/c1c[nH]c2ccccc12`, the “hERG current change (%, negative = inhibition) at 10uM” value falls from 9.71% to -26.2%.

First: CN(C)C(CNC(=O)c1cc(S(=O)(=O)N(C)c2ccccc2)ccc1Cl)c1cccs1 (stereo not shown)
Second: O=C1CCc2cc(S(=O)(=O)NC(Cc3ccccc3)C(=O)NCC3CCCO3)ccc2N1 (stereo not shown)
The “hERG current change (%, negative = inhibition) at 10uM” value of the first is lower: -33.5% for the first, 19.5% for the second.

Compared with `CCN(CC(=O)Nc1c(F)cccc1F)C(=O)CCN1C(=O)c2cccc([N+](=O)[O-])c2C1=O`, `CC1(C)CC(=O)C=C(NC2=CC3OC(c4ccccc4)OCC3OC2=O)C1` (stereo not shown) is lower in “hERG current change (%, negative = inhibition) at 10uM” value: 16.2% for the first, -0.196% for the second.

With `Cc1[nH]c(=O)[nH]c(=O)c1N1CCOCC1` the “hERG current change (%, negative = inhibition) at 10uM” value was 5.33%.
